Measured values from PubChem BioAssay AID624417 (National Center for Advancing Translational Sciences (NCATS), 2012).
Out of some 410,000 compounds screened, about 6,400 (1.6%) were called active. Inconclusive means that the source gave no clear call. Such entries were picked first, then a sample of the others. Calls follow the shape of the dose curve; as a rule, active = well fitted inhibition curve with a large enough effect; inconclusive = small, poorly fitted or top-dose-only effect; inactive = no such curve, though single readings can be large or run the other way. No potency is given beside an inconclusive call; the fits are too rough.

biological target: Glucagon-like peptide 1 receptor (Homo sapiens) (UniProt P43220); assay: qHTS of GLP-1 Receptor Inverse Agonists (Inhibition Mode); settings: HEK293 GLP-1R CRE-luciferase, luminescence, 24 h, GLP-1R form is constitutively active; activity change, negative = inhibition: at 38.3 µM (top of the series) unless noted; also: nearly all actives have a fitted effect of over 55% in size
Outline: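 HEK293 cells stably co-expressing constitutively active GLP-1R and a cAMP-responsive luciferase reporter were seeded in DMEM with 10% Nu serum, given compounds after 12 h, and incubated 24 h at 37 deg C. Luminescence was then read.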
% is scaled to controls: 0 for no effect and ±100 for the full control effect; potency is read from the fitted curve at half-maximal effect; tags tell the direction and shape of the fitted curve.

UniProt P43220, sequence (P43220 whole entry, looked up): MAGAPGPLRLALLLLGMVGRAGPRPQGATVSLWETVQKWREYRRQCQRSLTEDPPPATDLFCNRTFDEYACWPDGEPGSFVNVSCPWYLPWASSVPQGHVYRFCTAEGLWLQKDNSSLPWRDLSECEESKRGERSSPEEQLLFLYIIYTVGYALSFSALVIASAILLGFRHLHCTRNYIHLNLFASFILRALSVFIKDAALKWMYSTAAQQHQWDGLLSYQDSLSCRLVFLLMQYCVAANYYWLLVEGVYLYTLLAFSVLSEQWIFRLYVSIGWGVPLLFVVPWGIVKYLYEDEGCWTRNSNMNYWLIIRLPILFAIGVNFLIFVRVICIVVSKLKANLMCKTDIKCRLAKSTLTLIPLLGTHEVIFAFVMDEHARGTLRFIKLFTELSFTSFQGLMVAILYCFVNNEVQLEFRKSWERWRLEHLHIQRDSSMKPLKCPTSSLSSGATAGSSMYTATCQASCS

Row | Compound | Potency | activity change, negative = inhibition
1 | CCCC(=O)c1cc(F)c(N2CCN(S(=O)(=O)c3ccccc3)CC2)cc1C | inconclusive [inhibitor, partial curve, poor fit] | –
2 | COc1ccc(NC(=O)CSCC(=O)Nc2cccc(S(=O)(=O)N3CCCCCC3)c2)cc1 | inconclusive [inhibitor, partial curve, poor fit] | –
3 | COC(=O)c1sc(=S)n(-c2ccc(Cl)cc2)c1C | inconclusive [inhibitor, partial curve] | –
4 | O=C(N/N=C/c1ccc(F)cc1)c1cc(-c2ccccn2)nc2ccccc12 | – | inactive: 19%
5 | COc1ccc2oc(-c3ccccc3[N+](=O)[O-])cc(=O)c2c1 | inconclusive [inhibitor, partial curve] | –
6 | O=C(CN1CCN(S(=O)(=O)c2ccc(Br)s2)CC1)NCC1CCCCC1 | inconclusive [inhibitor, single point] | –
7 | CCC(C)[C@H](Nc1nc(-c2ccccc2)nc2c1oc1ccccc12)C(=O)O (stereo partly specified) | inconclusive [inhibitor, partial curve, poor fit] | –
8 | COc1cc(OC)c(N2CC(C(=O)Nc3cc(Cl)ccc3N3CCOCC3)CC2=O)cc1Cl (stereo unspecified) | inconclusive [inhibitor, partial curve] | –
9 | COCc1ccc(C(=O)N2CCCC(C(=O)c3cccc(C(F)(F)F)c3)C2)o1 (stereo unspecified) | inconclusive [inhibitor, partial curve, poor fit] | –
10 | O=C(O)/C=C/C(=O)N1CCN(C(c2ccccc2)c2ccccc2)CC1 | inconclusive [inhibitor, partial curve, poor fit] | –
11 | CN(C)S(=O)(=O)c1cccc(NC(=S)N/N=C/c2ccc(O)c(O)c2O)c1 | – | inactive: 5.28%
12 | COc1ccc(OCc2cc(C(=O)N(C)C(C)c3ccon3)no2)c(Cl)c1 (stereo unspecified) | inconclusive [inhibitor, partial curve, poor fit] | –
13 | CS(=O)(=O)Nc1cccc(C2=NN(C(=O)c3ccccc3Cl)C(c3ccccc3O)C2)c1 (stereo unspecified) | inconclusive [inhibitor, single point] | –
14 | COc1ccccc1NC(=S)NCc1cccs1 | – | inactive: 0.169%
15 | CCOC(=O)CSc1nccc(N(C)C)c1C#N | – | inactive: 4.71%
16 | Clc1cccc(N/N=C/c2ccc(N3CCOCC3)cc2)c1 | inconclusive [inhibitor, full curve, poor fit] | –
17 | CC(CO)NS(=O)(=O)c1cc(Cl)ccc1F (stereo unspecified) | – | inactive: 3.9%
18 | Cc1nnc2c(Oc3ccccc3)nc3ccccc3n12 | – | inactive: 19.8%
19 | O=C(CN1CCCCCC1)NCCN1C(=O)S/C(=C\c2ccccc2Cl)C1=O | inconclusive [inhibitor, partial curve, poor fit] | –
20 | COc1ccc(-c2cc(C(=O)NCC(c3ccccc3)N(C)C)c3ccccc3n2)cc1OC (stereo unspecified) | inconclusive [inhibitor, single point] | –
21 | O=C(NCc1ccc(F)cc1)C(c1ccc(Cl)cc1)N(C(=O)c1csnn1)C1CC1 (stereo unspecified) | inconclusive [inhibitor, partial curve] | –
22 | O=C(Nc1nnc(-c2ccc(Cl)cc2)o1)c1ccc(N2C(=O)CCC2=O)cc1 | – | inactive: 8.55%

Row | Compound | Potency | activity change, negative = inhibition
23 | COc1ccc(OC)c(Nc2nc(NCCCN(C)C)nc(N)c2[N+](=O)[O-])c1 | inconclusive [inhibitor, single point] | –
24 | CCn1cc(S(=O)(=O)c2cccc(C)c2)c(=O)c2cc(F)c(N3CCN(c4ccccc4)CC3)cc21 | – | inactive: -17.7%
25 | O=C(COC(=O)C1(c2ccccc2F)CCCC1)N1CCNC1=O | inconclusive [inhibitor, partial curve, poor fit] | –
26 | COc1cc(/C=N/NC(=S)NC2CC3CCC2C3)ccc1O (stereo unspecified) | inconclusive [inhibitor, single point] | –
27 | CC(=O)OCC1=C(C(=O)O)N2C(=O)C(NC(=O)c3ccc(COc4cccc(Cl)c4Cl)o3)C2SC1 (stereo unspecified) | inconclusive [inhibitor, partial curve] | –
28 | CNC(=O)c1c2c(nc3ccc(Br)cc13)CCCC2 | inconclusive [inhibitor, single point] | –
29 | CN(C)C(CNC(=O)c1cccs1)c1ccco1 (stereo unspecified) | – | inactive: 6.25%
30 | C=CCn1nc(C(=O)Nc2ccc(OC)cc2)cc1-c1sc(NC(=O)c2ccccc2)nc1C | inconclusive [inhibitor, single point] | –
31 | COc1ccc(OC)c(C2=CC(=O)C[C@H](c3ccc(F)cc3)C2)c1 | inconclusive [inhibitor, partial curve, poor fit] | –
32 | COc1ccccc1N(CC(=O)NCc1cccnc1)S(C)(=O)=O | – | inactive: -1.52%
33 | CC(=O)c1cccc(NC(=S)NC2CCCCCCC2)c1 | inconclusive [inhibitor, partial curve, poor fit] | –
34 | O[C@@H]1CN(Cc2ccc(-n3cccn3)cc2)CC[C@H]1N1CCN(c2ccccc2F)CC1 | inconclusive [inhibitor, partial curve, poor fit] | –
35 | CCN(C(=O)CSc1nc2n[nH]c(C)c2c(=N)n1-c1cccc(OC)c1)c1cccc(C)c1 | inconclusive [inhibitor, single point] | –
36 | CCN1CCN(c2cc(C)c3cc(NC(=O)CCC(=O)Nc4ccc(OC)cc4OC)ccc3n2)CC1 | – | inconclusive: -59.1% [inhibitor]
37 | NC(=S)N/N=C/c1ccccc1OC(=O)/C=C/c1ccccc1 | active: 2.51 µM | –
38 | COc1ccc(C(CNC(=O)c2ccc(OCc3csc(C)n3)cc2)N2CCCC2)cc1 (stereo unspecified) | inconclusive [inhibitor, partial curve, poor fit] | –
39 | CCn1c(SCc2cccc(F)c2)nc2c(c1=O)SCC2 | inconclusive [inhibitor, single point] | –
40 | CCCCN(CC)CCCNC(=O)c1ccc(CS(=O)(=O)c2c(Cl)cccc2Cl)o1 | inconclusive [inhibitor, partial curve, poor fit] | –
41 | CC(NS(=O)(=O)c1ccccc1)C1CC2CCC1C2 (stereo unspecified) | inconclusive [inhibitor, full curve, poor fit] | –
42 | O=C(O)/C=C\C(=O)Nc1ccc(N2CCN(c3ccc(Cl)c(Cl)c3)CC2)cc1 | – | inactive: -57.4%
43 | S=c1[nH]nc(-c2cccnc2)n1/N=C/c1ccc(Br)s1 | – | inactive: 31.5%
44 | Cn1c(SCc2ccccc2F)nc2cccnc21 | – | inactive: 0%

Row | Compound | Potency | activity change, negative = inhibition
45 | CCOC(=O)c1cccc(NC(=O)CCc2ccccc2)c1 | inconclusive [inhibitor, single point] | –
46 | O=C(N[C@@H](Cc1ccccc1)C(=O)N[C@@H](Cc1ccccc1)C(=O)O)OCc1ccccc1 | – | inactive: 12.8%
47 | CC(=O)O/N=C(\N)c1ccc(-c2csnn2)cc1 | – | inactive: 6.12%
48 | Cc1ccc(CNc2cc(C)nc3nc(-c4cccc(C)c4)nn23)cc1 | inconclusive [inhibitor, single point] | –
49 | O=C1c2ccccc2C2=Nc3ccccc3SC(c3ccccc3F)C12 (stereo unspecified) | inconclusive [inhibitor, full curve, poor fit] | –
50 | CCOC(=O)CN1C(=O)c2ccccc2C1=O | – | inactive: -7.07%
51 | COc1ccc(OC)c(NC(=O)c2cc(=O)c3c(C)cc(C)cc3o2)c1 | inconclusive [inhibitor, full curve, poor fit] | –
52 | c1ccc2c(c1)Nc1ccncc1S2 | inconclusive [inhibitor, partial curve, poor fit] | –
53 | O=C(/C=C/c1cccc([N+](=O)[O-])c1)c1cccs1 | inconclusive [inhibitor, single point] | –
54 | Cc1ccc(CNc2nccn(-c3cc(C)cc(C)c3)c2=O)cc1 | inconclusive [inhibitor, single point] | –
55 | COc1ccc(C(=O)C2CCCN(S(=O)(=O)c3cccc(C)c3)C2)c(C)c1 (stereo unspecified) | inconclusive [inhibitor, single point] | –
56 | COc1ccc(C(c2nnnn2Cc2ccc(F)cc2)N2CCN(c3ccc(OC)cc3)CC2)cc1 (stereo unspecified) | inconclusive [inhibitor, partial curve, poor fit] | –
57 | COc1ccc(-c2cc(C(=O)OCC(=O)c3c(N)n(C)c(=O)n(C)c3=O)c3ccccc3n2)cc1 | – | inactive: 23.7%
58 | Cc1ccc(C(=O)N2CCCC(N3CCN(c4cccc(C(F)(F)F)c4)CC3)C2)s1 (stereo unspecified) | inconclusive [inhibitor, partial curve, poor fit] | –
59 | Cc1ccc(-n2nc(C(=O)N3CCN(c4cccc(C(F)(F)F)c4)CC3)c3c4ccccc4n(C)c3c2=O)cc1 | – | inactive: -5.37%
60 | OC(c1ccccc1)(c1ccccc1)C1CCN(CCCOc2cccc(OC(F)(F)F)c2)CC1 | inconclusive [inhibitor, single point] | –
61 | Cn1c(NCc2c[nH]c3ccccc23)nc2ccccc21 | inconclusive [inhibitor, partial curve, poor fit] | –
62 | C(=C\c1ccccc1)/CN1CCN(Cc2nc(Cc3ccccc3)no2)CC1 | inconclusive [inhibitor, partial curve, poor fit] | –
63 | CCOC(=O)c1ccc2[nH]c(CSc3nnc(-c4cccc(F)c4)n3C)cc(=O)c2c1 | – | inactive: 7.82%
64 | N/C(=N\OC(=O)Oc1ccccc1)c1cccc([N+](=O)[O-])c1 | – | inactive: 6.25%
65 | COc1ccc(Cl)cc1NC(=O)C(C)N1CCN(C/C=C/c2ccccc2)CC1 (stereo unspecified) | inconclusive [inhibitor, partial curve, poor fit] | –
66 | COc1ccc(-c2cc(-c3ccccc3)c(C#N)c(SCC(=O)Nc3ncc(C)s3)n2)cc1 | inconclusive [inhibitor, full curve] | –
